Here are results for 63 sequences from the supplement of paper PMC10681739.

± gives the standard deviation of the averaged measurements. Over roughly 4,100 sequences, “arbitrary fluorescence units” has its median near 780; the highest 2% begin near 22,000. The list shows a part of the results.

The assay deals with T1, ETS1 (UniProt P14921).
T1 sequence: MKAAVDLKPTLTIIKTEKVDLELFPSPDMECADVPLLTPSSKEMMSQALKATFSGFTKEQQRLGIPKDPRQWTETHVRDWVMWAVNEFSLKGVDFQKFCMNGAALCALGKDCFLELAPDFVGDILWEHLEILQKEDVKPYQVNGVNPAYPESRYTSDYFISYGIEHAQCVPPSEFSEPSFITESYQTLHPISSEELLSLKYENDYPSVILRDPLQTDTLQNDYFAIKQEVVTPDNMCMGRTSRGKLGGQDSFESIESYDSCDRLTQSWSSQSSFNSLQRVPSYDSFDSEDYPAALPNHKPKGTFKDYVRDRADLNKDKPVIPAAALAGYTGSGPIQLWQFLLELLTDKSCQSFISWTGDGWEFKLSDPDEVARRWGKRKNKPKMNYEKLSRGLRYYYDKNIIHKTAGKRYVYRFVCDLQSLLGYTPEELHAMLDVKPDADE
Description: ETS1 binding intensity (PBM fluorescence), ETS1 alone (arbitrary fluorescence units); higher = stronger binding. As to conditions: ETS1 concentration 1 nM; RUNX1 concentration 0 nM. An outline of the steps: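 Full-length recombinant human ETS1 (1 nM, no RUNX1) was incubated, per standard PBM protocols, on double-stranded Agilent 4 × 180k arrays of 36-bp genomic probes whose RUNX1 partner site was mutated. Bound ETS1 was detected with anti-ETS1 antibody (Cell Signaling Technology 14069) and Alexa488-conjugated secondary antibody, then scanned on a GenePix 4400A. Binding level is spot fluorescence intensity, summarised over replicate spots (four printed per sequence) and not normalised.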
Turning to ACCCCTTCAGGAAGCACTCACCTACAGCCAGGCTCC, the ETS1 binding intensity amounted to 489.

In turn, ATCTTCAGGAAGCGGTATCAACCTGAAAAGCACCAC registered an ETS1 binding intensity of 1060.

Consider CTAGCCCAGAAAGCTGCAGCAGCTTCCTCAGGGACG, for which the ETS1 binding intensity was 394.

Sequence GCAGCGCCGGTTCAGCTCCAACCTTCCTGGAGACCC returned an ETS1 binding intensity of 381.

For the sequence CCTGACTCTGGGTTTCCTCCCAGCCACGGACACCTG, the ETS1 binding intensity stood at 625.

The sequence CGGGGCCTGTGATTACTACACTCCACTTCCTTATGA yielded an ETS1 binding intensity of 473.

CGTGAGCCACGGCGCCCGGCCTCGCCCTTCCTGAAG: the ETS1 binding intensity is 353.

Consider GCGGCACACCGTGACTGCTAATTAGCCCGGAAGCTG, for which the ETS1 binding intensity is 423.

On to AAAAAGCCGGATGTGAAGGCTGGGGTTCTCAACCCG, for which the ETS1 binding intensity stood at 11600.

For CGAGAAGGAGGTGGGCAAGGAACGGAAGCCGGGAGG, the ETS1 binding intensity stood at 553.

TGCTGCCCAGCACCGTAAGGACACGGATGCCCCGCC gave an ETS1 binding intensity of 319.

In the case of TCTGGGCTGTCGTTACAAGCAGGAAGTGGCCATGGC, the ETS1 binding intensity was 4610.

Regarding CAAGTGTACATGTAGTTATAACTTCCTGTGCTGCCT, the ETS1 binding intensity was determined as 3350.

In turn, AGCGCCTTACCCTCGGCACACCCATTTCCTGACCCC registered an ETS1 binding intensity of 624.

In turn, CGCCGAACTTCCGGCAGTAAATTCCGTGGATTCCCG displayed an ETS1 binding intensity of 27100.

GGCAGACAGTAAATCGCGGCGTTTCCTGGAGGGCGC registered an ETS1 binding intensity of 984.

For the sequence CGCCTACCCCTTCCTGAGGCGGGGGCGGATTCTCGA, the ETS1 binding intensity amounted to 1170.

CATCATGAGAACCTCACTCACCGAATCCGGCACCCA showed an ETS1 binding intensity of 409.

GGCGCGCTCGGGGTTAACCCGGAGCGGAAGGATCCC yielded an ETS1 binding intensity of 382.

For TGGAATTGAAAGGAAGCTGGCGCCACCGAAGAGGAC, the ETS1 binding intensity came to 587.

For GGGTCTCCAGGAAGCCACTCACCCCAAACTTTGACA, the ETS1 binding intensity amounted to 508.

In turn, CTCTGCTTCCTGTCTTTGAATGCCTCTGTGATTTTC had an ETS1 binding intensity of 13400.

For the sequence TCATTTCCTCTGGTGTTATTGTGTTGGGGTTTTAAG, the ETS1 binding intensity stood at 8650.

Regarding AGCAGCATAGTCCACAAGTTTCCTGTGTTTGCATCT, the ETS1 binding intensity turned out to be 1480.

On to CGCCGGACGTAGTGACGTAGCGCGCAGCTGCAGCGG, for which the ETS1 binding intensity worked out at 1130.

On to CCTCACCCAGGAAGTGGCTGCTGCTGTCTCAGGGTT, for which the ETS1 binding intensity turned out to be 2170.

CTCTGTGCCCTGCCCCAACAGACAGGATGTGACTTC yielded an ETS1 binding intensity of 988.

In the case of GTCTTCCTTCCTGAGAATCTTATCCACCAGCTTGCC, the ETS1 binding intensity came to 2620.

For the sequence CCTCATCCTGAGTCTGAGAGCTGCAGCTCGCACAGA, the ETS1 binding intensity came out at 1950.

In the case of CTCCACCTCAGGGCTGGGCTGCCACATCCCATTCAT, the ETS1 binding intensity is 434.

In the case of CCCTTTTCCTTCCGGCCTGTGCAGCTTATAAGATCT, the ETS1 binding intensity was determined as 8530.

The sequence TGAGAGGCAGTGGATTCTCTGGCCAGGAAATTGAGG showed an ETS1 binding intensity of 376.

Consider GGTCGCTCTGGTGACGGGGGAGGAAATTCTGTCCGT, for which the ETS1 binding intensity came out at 512.

Sequence ACATTTCCTTTTGGTATTTAAAGTAATCACACAGAA yielded an ETS1 binding intensity of 9870.

With ATGCCTGGGGTCCCAGCTACACAGGAAGCTGAGGTG, the ETS1 binding intensity came to 707.

For CTGGAATCCACCTCTCGCTCCATTTCCCAGCACCCC, the ETS1 binding intensity was 379.

GACAGGATACAAGAATTCCGCGGACTGCCGTAGTCG: the ETS1 binding intensity was 806.

Take GGAGGAAGAGAGGAAACGGGGGCGGGCGCCGCTTCT: the ETS1 binding intensity was 1710.

GTGAGCTACAAGGGCCCCTGGGTCCTTCCTCCAAAC came in with an ETS1 binding intensity of 316 ± 33.

Sequence AACATCCGGTTCCCGGTTCTGCCCCCTACCCCAGCT displayed an ETS1 binding intensity of 49100.

TTTCTCTTCCTGTTTCCACCCTGAGCACAGCCAGCT: the ETS1 binding intensity came to 9020.

CTGCAAACCCCAAAACACCTGACTGCTACGGAAGAT: the ETS1 binding intensity is 424.

For the sequence CTTTCTTGTAGGCGATGATACTTCCTACATTCCCCC, the ETS1 binding intensity is 516.

TTTCGAGAAAACCGGAAGTGCGTGGACACGCCCCGC gave an ETS1 binding intensity of 31500.

The sequence CTGCCAGAGCACACAGTTTGCACTTCCGGGGCGGGC came in with an ETS1 binding intensity of 2710.

CTCTCAGACTCAGGATGAGGTGGCCGTAGGTGGGGT registered an ETS1 binding intensity of 416.

In the case of CACTGTGCTCTAACGACACTGACATCCGCCTGCCTC, the ETS1 binding intensity was determined as 1900.

Consider ACGAGGTTTCCTGCAGGCTCCAGCCGAGACAACATC, for which the ETS1 binding intensity turned out to be 2630.

The sequence AGCTGCGAGAACCCCAGTGAGAGTGTGATTTCCTCT gave an ETS1 binding intensity of 307.

In turn, CTAACCCTGCTTCCTCTTAGTGCTTTCCCCCAACCT yielded an ETS1 binding intensity of 2190.

In the case of TTTTGCGATTTTTGATCTGGAAGCCACACATCCTTA, the ETS1 binding intensity is 424.

Sequence CTAACTCACACCAGCGCGTTGCCTCGGAAACATCGC registered an ETS1 binding intensity of 401.

CTGAGGGTGCTTTGGGTGCAGCTTCCTGAAAGGAGA came in with an ETS1 binding intensity of 575.

Turning to CTGCGATTTCCTGGCCTACCGTCTGGTGTTGTACCT, the ETS1 binding intensity came to 4870.

In turn, ACCAGCTGGGGCTGGGTGCAGCGGAAGGTGTCTACG yielded an ETS1 binding intensity of 350.

Regarding TGCCAGATCCGGCTGCGCCGGGGCCGAAAGCACGCC, the ETS1 binding intensity is 2190.

Sequence GAAAACACAGGAAGCCGTCCGCGCAAGCGCGTTGCA showed an ETS1 binding intensity of 3180.

Take TTTACAGGAAATATCCAGAACAGGTAAACCTACAGA: the ETS1 binding intensity is 2490.

As for ACCTTGCAAGACCAAAACACATCCTGGGGCCCCACT, the ETS1 binding intensity is 830.

GAGCGCAGGACGGAAGCTCGGTGCGCGTACGGCCTC came in with an ETS1 binding intensity of 1000.

Take ACCCCAAAGATTCCTGTTGGTGCTCTGGGTCACAGG: the ETS1 binding intensity was 326.

GGCGGCACTAGGCTTCCGCCTCACCGAAGTGGGGTT: the ETS1 binding intensity is 2020.

Take ACCAGCCCAGGAAGCATCTGCAGTTCAAGTGGCCAC: the ETS1 binding intensity was found to be 494.
